Measured values published in a collection of fitness landscapes (doi:10.1016/j.celrep.2020.107928).
The full ranking holds about 81,000 sequences; the median of “one-hybrid fitness for binding parS DNA” is about -0.17, and the highest 2% start at about 0.51. This is one part of the list.

B1: Caulobacter ParB omega fusion; a variant is named by its letters at X, in order, B8GW30 (parent)
chain: MESVVVGEPGMSEGRRGLGRGLSALLGEVDAAPAQAPGEQLGGSREAPIEILQRNPDQPRRTFREEDLEDLSNSIREKGVLQPILVRPSPDTAGEYQIVAGERAWRAAQRAGLKTVPIMVRELDDLAVLEIGIIENVQRADLNVLEEALSYKVLMEKFERTQENIAQTIGKSXSHVANXMRLLXLPDEVQSYLVSGELTAXHARAIAAAADPVALAKQIIEGGLSVRETEALARKAPNLSAGKSKGGRPPRVKDTDTQALESDLSSVLGLDVSIDHRGSTGTLTITYATLEQLDDLCNRLTRGI

Variants of: B1
Assay: one-hybrid fitness for binding parS DNA (scaled: cognate 1, non-cognate 0); higher = stronger binding
Conditions: with parS DNA site
In short: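 Selection: bacterial one-hybrid in E. coli USO, HIS3 reporter with the site 19 bp from the promoter, 48 hours at 37°C on M9-minus-histidine plus 0.1 mM IPTG and 5 mM 3-AT. Libraries were Caulobacter ParB with four randomised specificity codons, sequenced on Illumina before and after selection. Fitness is the rescaled log change in variant-to-wild-type read ratio, anchored to the cognate and non-cognate sites.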

Variant | one-hybrid fitness for binding parS DNA
VRTN | ≤ 0.2
RQEQ | 0.223
WCVR | ≤ 0.2
RVTA | 0.578
AWNC | ≤ 0.2
QPLP | ≤ 0.2
TEHT | ≤ 0.2
LKHG | ≤ 0.2
LITP | ≤ 0.2
KHTK | ≤ 0.2
WVLR | ≤ 0.2
SIIR | ≤ 0.2
RYAY | 0.425
DTWT | ≤ 0.2
PTKW | ≤ 0.2
TRYT | ≤ 0.2
QPPA | ≤ 0.2
PHKP | ≤ 0.2
TTPF | ≤ 0.2
YESS | ≤ 0.2
HTSN | ≤ 0.2
CNSF | ≤ 0.2
AFVR | ≤ 0.2
RSRD | ≤ 0.2

Variant | one-hybrid fitness for binding parS DNA
NSNT | ≤ 0.2
EIRG | ≤ 0.2
NMLN | ≤ 0.2
WTNL | ≤ 0.2
YRHC | ≤ 0.2
HGPL | ≤ 0.2
QFFT | ≤ 0.2
GRKC | ≤ 0.2
DIPV | ≤ 0.2
PMDW | ≤ 0.2
GHMS | ≤ 0.2
TENF | ≤ 0.2
RTFC | 0.986
LIYG | ≤ 0.2
YFLT | ≤ 0.2
MKWS | ≤ 0.2
MNFR | ≤ 0.2
QPRF | ≤ 0.2
RSHF | 0.257
QQNA | ≤ 0.2
NNLI | ≤ 0.2
PASY | ≤ 0.2
IHAT | ≤ 0.2
HFNK | ≤ 0.2

Variant | one-hybrid fitness for binding parS DNA
RISF | 0.21
SPSI | ≤ 0.2
IHMC | ≤ 0.2
MASF | ≤ 0.2
SAAN | ≤ 0.2
TCKF | ≤ 0.2
RRMA | 0.809
PWLN | ≤ 0.2
RQSG | 0.984
MALS | ≤ 0.2
CGDA | ≤ 0.2
LRLI | ≤ 0.2
HFSS | ≤ 0.2
LNPW | ≤ 0.2
PSGW | ≤ 0.2
QGWT | ≤ 0.2
HTLD | ≤ 0.2
NESS | ≤ 0.2
VSHF | ≤ 0.2
KLIV | ≤ 0.2
RQYR | ≤ 0.2
WPQG | ≤ 0.2
QRWG | ≤ 0.2
KPGR | ≤ 0.2

Variant | one-hybrid fitness for binding parS DNA
PILE | ≤ 0.2
ACLM | ≤ 0.2
MPGR | ≤ 0.2
RKPP | ≤ 0.2
RMVY | 0.438
RDGP | ≤ 0.2
MYEK | ≤ 0.2
APFC | ≤ 0.2
RGQP | ≤ 0.2
DFSM | ≤ 0.2
PLCR | ≤ 0.2
DLYN | ≤ 0.2
SWRM | ≤ 0.2
AIDI | ≤ 0.2
YSTC | ≤ 0.2
YKLQ | ≤ 0.2
HKVS | ≤ 0.2
CGGS | ≤ 0.2
FPTL | ≤ 0.2
KSTR | ≤ 0.2
GAYS | ≤ 0.2
LIKG | ≤ 0.2
PKNT | ≤ 0.2
DPRH | 0.223

Variant | one-hybrid fitness for binding parS DNA
SVPF | ≤ 0.2
RATE | 0.204
EQAI | ≤ 0.2
DGFS | ≤ 0.2
RGIW | ≤ 0.2
CGTD | ≤ 0.2
PQIR | ≤ 0.2
RYIF | ≤ 0.2
PIWN | ≤ 0.2
SVCT | ≤ 0.2
YQAG | ≤ 0.2
GTAM | ≤ 0.2
WPHR | ≤ 0.2
WQQS | ≤ 0.2
TMRC | ≤ 0.2
ADEG | ≤ 0.2
RKPH | ≤ 0.2
EPHW | ≤ 0.2
AADS | ≤ 0.2
LFRP | ≤ 0.2
YKQT | ≤ 0.2
RFTR | ≤ 0.2
GPTK | ≤ 0.2
RPPN | ≤ 0.2

Variant | one-hybrid fitness for binding parS DNA
SRKT | ≤ 0.2
CAKK | ≤ 0.2
VQTS | ≤ 0.2
FGHA | ≤ 0.2
NCLC | ≤ 0.2
RWHH | ≤ 0.2
YDET | ≤ 0.2
RCFE | 0.252
VEWR | ≤ 0.2
CFIR | ≤ 0.2
PRKK | ≤ 0.2
RWAM | ≤ 0.2
TSVV | ≤ 0.2
TIET | ≤ 0.2
VIAR | ≤ 0.2
KTQI | ≤ 0.2
RYCN | 0.382
CMPI | ≤ 0.2
QEHW | ≤ 0.2
RGLA | 0.259
APDA | ≤ 0.2
HHQG | ≤ 0.2
LVNT | ≤ 0.2
SADF | ≤ 0.2

Variant | one-hybrid fitness for binding parS DNA
NRYC | ≤ 0.2
GVSR | ≤ 0.2
WPPG | ≤ 0.2
TKCG | ≤ 0.2
KPSR | ≤ 0.2
QRDE | ≤ 0.2
RHMG | 0.932
KCQT | ≤ 0.2
RWLS | 0.8
GAPP | ≤ 0.2
YSNE | ≤ 0.2
HDQC | ≤ 0.2
RQKC | 0.926
HAYC | ≤ 0.2
FKNI | ≤ 0.2
RVAW | 0.209
LDEA | ≤ 0.2
ITKF | ≤ 0.2
KACT | ≤ 0.2
PQSV | ≤ 0.2
QCPP | ≤ 0.2
QKNE | ≤ 0.2
LPAL | ≤ 0.2
EGQS | ≤ 0.2

Variant | one-hybrid fitness for binding parS DNA
MDIT | ≤ 0.2
IGRS | ≤ 0.2
ARCV | ≤ 0.2
PVTE | ≤ 0.2
WGCR | ≤ 0.2
IPLV | ≤ 0.2
DPVQ | ≤ 0.2
RTWE | ≤ 0.2
VNHF | ≤ 0.2
DEST | ≤ 0.2
CFNS | ≤ 0.2
QIYF | ≤ 0.2
VSDL | ≤ 0.2
WHLS | ≤ 0.2
EFSR | ≤ 0.2
RNFI | ≤ 0.2
RLRK | ≤ 0.2
WDRC | ≤ 0.2
QPST | ≤ 0.2
HWST | ≤ 0.2
PPGV | ≤ 0.2
FKPN | ≤ 0.2
YLVI | ≤ 0.2
WATN | ≤ 0.2

Variant | one-hybrid fitness for binding parS DNA
GAPK | ≤ 0.2
SYPW | ≤ 0.2
TFVV | ≤ 0.2
ADQP | ≤ 0.2
WGGL | ≤ 0.2
KSPR | ≤ 0.2
RKCF | ≤ 0.2
DVLV | ≤ 0.2
IIRA | ≤ 0.2
YWPF | ≤ 0.2
YMMC | ≤ 0.2
TGQY | ≤ 0.2
ICIS | ≤ 0.2
KVSS | ≤ 0.2
NNTM | ≤ 0.2
HDLK | ≤ 0.2
WQVL | ≤ 0.2
LPLI | ≤ 0.2
VDST | ≤ 0.2
MAIW | ≤ 0.2
QSYL | ≤ 0.2
PTLT | ≤ 0.2
IYPL | ≤ 0.2
SKNQ | ≤ 0.2

Variant | one-hybrid fitness for binding parS DNA
VEVP | ≤ 0.2
SFEM | ≤ 0.2
RAEK | ≤ 0.2
MCEG | ≤ 0.2
TCYE | ≤ 0.2
KELQ | 0.213
HNLK | ≤ 0.2
RLCH | 0.22
DSPC | ≤ 0.2
MAKK | ≤ 0.2
RFTE | ≤ 0.2
KAQT | ≤ 0.2
IGVC | ≤ 0.2
AING | ≤ 0.2
RNPP | ≤ 0.2
KKGA | ≤ 0.2
MLSE | ≤ 0.2
ETMC | ≤ 0.2
WPVS | ≤ 0.2
DIET | ≤ 0.2
LQTR | ≤ 0.2
FSFS | ≤ 0.2
KKKN | ≤ 0.2
TLHK | ≤ 0.2

Variant | one-hybrid fitness for binding parS DNA
RWSC | 0.788
QITG | ≤ 0.2
YYIC | ≤ 0.2
KLPL | ≤ 0.2
MAMW | ≤ 0.2
IRLT | ≤ 0.2
SMHC | ≤ 0.2
YALH | ≤ 0.2
DDDT | ≤ 0.2
RYNN | 0.364
SMAT | ≤ 0.2
NVCN | ≤ 0.2
ATMM | ≤ 0.2
MLVV | ≤ 0.2
RTVT | 0.879
LNTD | ≤ 0.2
PYPE | ≤ 0.2
QHND | ≤ 0.2
TWTA | ≤ 0.2
QLPV | ≤ 0.2
TMLL | ≤ 0.2
HFKR | ≤ 0.2
SSLR | ≤ 0.2
VLGV | ≤ 0.2

Variant | one-hybrid fitness for binding parS DNA
NHDV | ≤ 0.2
CCQC | ≤ 0.2
RTKC | 0.813
HVQV | ≤ 0.2
RCTV | ≤ 0.2
DRMV | ≤ 0.2
QQMQ | ≤ 0.2
IHYS | ≤ 0.2
RCLA | 0.609
MKRL | ≤ 0.2
SPYT | ≤ 0.2
TTVK | ≤ 0.2
PSMI | ≤ 0.2
YRQR | ≤ 0.2
EEKY | ≤ 0.2
RGNC | 0.716
MTCY | ≤ 0.2
ISIY | ≤ 0.2
ADKW | ≤ 0.2
SQGT | ≤ 0.2
SRSH | ≤ 0.2
QVMI | ≤ 0.2
LWFV | ≤ 0.2
ASNA | ≤ 0.2

Variant | one-hybrid fitness for binding parS DNA
HACW | ≤ 0.2
PEYS | ≤ 0.2
YHTA | ≤ 0.2
YHPS | ≤ 0.2
RIDL | ≤ 0.2
HCDR | ≤ 0.2
PLSQ | ≤ 0.2
LVKR | ≤ 0.2
VRWW | ≤ 0.2
AFVK | ≤ 0.2
PVWM | ≤ 0.2
VVKE | ≤ 0.2
VHHT | ≤ 0.2
CSNV | ≤ 0.2
CLHY | ≤ 0.2
QDMC | ≤ 0.2
ATPD | ≤ 0.2
KVLG | ≤ 0.2
